# Assay results: PubChem BioAssay AID686978 (National Center for Advancing Translational Sciences (NCATS), 2013)
# Screen size: about 420,000 compounds; about 64,000 (15%) were called active. Inconclusive means that the source gave no clear call. Such entries were picked first, then a sample of the others. Calls follow the shape of the dose curve; as a rule, active = well fitted inhibition curve with a large enough effect; inconclusive = small, poorly fitted or top-dose-only effect; inactive = flat fitted curve, though single readings scatter. No potency is given beside an inconclusive call; the fits are too rough.
# Experiment: qHTS for Inhibitors of human tyrosyl-DNA phosphodiesterase 1 (TDP1): qHTS in cells in absence of CPT; also: nearly all actives have a fitted effect of over 55% in size
# Conditions: DT40 Tdp1-/- hTDP1 cells, no CPT, ATP luminescence, 48 h; series mostly up to 46.2 µM
# In short: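 Compound effects on proliferation are scored in DT40 Tdp1-/-;hTDP1 cells in the absence of CPT. ATP levels (CellTiter-Glo luminescence) are recorded after a ≥48 hr, 37 °C incubation.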
# Potency is read from the fitted curve at half-maximal effect; tags tell the direction and shape of the fitted curve.
row,Compound,Potency
1,CCOc1ccc(NC(=O)Cn2nnc(C(=O)OC)c2C(=O)OC)cc1,inactive
2,C=CCn1c(C)cc(C(=O)CSc2nnc(NCc3ccccc3)s2)c1C,active: 14.6 µM
3,O=C(CSc1cccc(C(F)(F)F)c1)Nc1ccc(N2CCOCC2)cc1,"inconclusive [inhibitor, partial curve, poor fit]"
4,COc1cccc(NC(=O)CSc2nc3c(sc4ccccc43)c(=O)n2CCN(C)C)c1,"inconclusive [inhibitor, partial curve]"
5,CCc1c(N)nc(N)nc1Nc1ccccc1Cl,active: 20.6 µM
6,CCCS(=O)(=O)N1CCCC(C(=O)NCCCN(C)c2ccccc2)C1 (stereo not given),inactive
7,COc1ccc(Cn2c(SCC(=O)NCc3ccccc3)nc3ccccc32)cc1,"inconclusive [inhibitor, single point]"
8,O=C(NC1CCc2ccccc21)C1CCN(S(=O)(=O)c2ccc(-n3cnnn3)cc2)CC1 (stereo not given),"inconclusive [inhibitor, single point]"
9,COc1cc(C(=O)N[C@H](C(=O)OCC(=O)NC2CCCCCC2)C(C)C)cc(OC)c1OC,inactive
10,COc1ccccc1-c1ccc2ncnc(NCCN3CCOCC3)c2c1,"inconclusive [inhibitor, partial curve]"
11,CCN1C(=O)/C(=C\c2ccc(-c3ccc([N+](=O)[O-])cc3OC)o2)SC1=Nc1cccc(C(=O)O)c1,inactive
12,CCc1nnc(NC(=O)c2nc(S(=O)(=O)Cc3ccccc3)ncc2Cl)s1,active: 18.4 µM
13,O=C(N/N=C/c1cc2c(cc1Cl)OCO2)c1ccc2c(c1)OCCO2,"inconclusive [inhibitor, single point]"
14,CSc1nc(Cl)c(Cc2ccc(OCC(C)C)cc2)c(N2CCOCC2)n1,"inconclusive [inhibitor, single point]"
15,CN1c2ccsc2C(O)=C(C(=S)Nc2ccc(F)c(Cl)c2)S1(=O)=O,"inconclusive [inhibitor, single point]"
16,N#C/C(=N\Nc1ccc(F)cc1)C(=O)C1CC1,inactive
17,CSc1ccc(S(=O)(=O)NCC(=O)OCC(=O)N(C)Cc2ccccc2)cc1[N+](=O)[O-],inactive
18,CCOC(=O)c1c(-c2ccccc2)oc2ccc(OC)cc12,"inconclusive [inhibitor, partial curve]"
19,COc1cc(OC)c2c(-c3ccccc3)cc(=O)oc2c1,inactive
20,COc1cccc(-c2nc(N)nc(SC)c2C#N)c1,inactive
21,CCCNC(=O)C1(C)CCCN(Cc2ccccc2-c2ccccc2)C1 (stereo not given),"inconclusive [inhibitor, single point]"
22,O=S(=O)(Nc1cccc(-c2ccc(N3CCOCC3)nn2)c1)c1ccc(Cl)c(Cl)c1,inactive
23,O=c1oc2ccc3ccccc3c2cc1-c1nnc(Nc2ccccc2)s1,"inconclusive [inhibitor, single point]"

row,Compound,Potency
1,COc1cccc(Cn2c(NCC(C)C)nc3c2c(=O)n(C)c(=O)n3C)c1,active: 23.1 µM
2,CCc1cccc(NC(=O)Cn2nc(CC)n3c(cc4cc(C)ccc43)c2=O)c1,"inconclusive [inhibitor, single point]"
3,COc1ccc(NS(=O)(=O)c2cc(NC(=O)c3ccc(=O)[nH]n3)ccc2C)cc1,active: 18.4 µM
4,O=C(O)C1CCCCC1C(=O)Nc1ccccn1 (stereo not given),inactive
5,O=C1c2cc(Br)ccc2N(Cc2ccc(Br)cc2)S(=O)(=O)C1c1cc(Cl)c(Cl)cc1[N+](=O)[O-] (stereo not given),"inconclusive [inhibitor, single point]"
6,CNc1nc(N)c([N+](=O)[O-])c(NCC2CCCO2)n1 (stereo not given),"inconclusive [inhibitor, single point]"
7,CC(C)C1C(c2ccccc2)NC(c2ccccc2)CC1(O)c1ccc(F)cc1 (stereo not given),active: 14.6 µM
8,O=C(CCCN1C(=O)/C(=C\c2cccs2)SC1=S)Nc1cccc(C(=O)O)c1,inactive
9,COc1ccc(OCC(=O)Nc2ccc(NC(=O)c3ccco3)cc2)cc1,"inconclusive [inhibitor, single point]"
10,O=[N+]([O-])c1cccc(C=NNc2ccccc2)c1,"inconclusive [inhibitor, single point]"
11,COc1ccc(NS(=O)(=O)c2cc(NC(=O)c3cnc(C)cn3)ccc2N2CCCC2)cc1,"inconclusive [inhibitor, partial curve, poor fit]"
12,COc1ccc(C(=O)N2CCC3(CCCN(Cc4cc(C(F)(F)F)cc(C(F)(F)F)c4)C3)CC2)cc1,"inconclusive [inhibitor, single point]"
13,Cc1cc(C)c(-c2nc3ccccc3s2)[nH]1,"inconclusive [inhibitor, single point]"
14,Cc1c(C(=O)c2ccccc2C(=O)O)sc2ccccc12,inactive
15,CC12CCC(=O)N1C(C(=O)NCCN1C(=O)S/C(=C\c3ccc(OC(F)F)cc3)C1=O)CS2 (stereo not given),"inconclusive [inhibitor, single point]"
16,COc1ccc([C@@H]2C[C@H]3[C@@H](CN2S(=O)(=O)c2ccccc2)C(=O)C[C@@H](c2ccccc2F)N3S(=O)(=O)c2ccc(C)cc2)cc1,"inconclusive [inhibitor, full curve]"
17,CC(=O)NCCNc1nc(NC(C)C)nc2cc(-c3ccccc3)sc12,"inconclusive [inhibitor, single point]"
18,COc1cc(C2Nc3cccc4cccc(c34)N2)cc(OC)c1O,"inconclusive [inhibitor, single point]"
19,Cc1ccc(-c2c[n+]3c(n2-c2ccccc2)CCC3)cc1,active: 0.651 µM
20,CCn1c(SCc2nc3ccccc3nc2C)nnc1-c1cccs1,"inconclusive [inhibitor, single point]"
21,CN1CCC(N(C)C(=S)Nc2ccc(SC(F)F)cc2)CC1,"inconclusive [inhibitor, single point]"
22,COc1cccc(NC(=O)CSc2nc(O)c(C/C=C/c3ccccc3)c(=O)[nH]2)c1,"inconclusive [inhibitor, single point]"
